Source: PubChem BioAssay AID489012 (National Center for Advancing Translational Sciences (NCATS), 2010)
Inconclusive results, whose numbers are uncertain, are shown with a selection of clear calls. Potencies beside an inconclusive call are fits to weak or partial responses and may not hold up. The source made the active and inactive calls. Calls follow the shape of the dose curve; as a rule, active = well fitted activation curve with a large enough effect; inconclusive = small, poorly fitted or top-dose-only effect; inactive = no such curve, though single readings can be large or run the other way.
Also: nearly all actives have a fitted effect of over 65% in size.
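For activation in this document: cAMP rise lowers the TR-FRET signal in lysed cells with PDE4 inhibitor present.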
Potency is read from the fitted curve at half-maximal effect; tags tell the direction and shape of the fitted curve.

What follows are compounds tested against Relaxin receptor 1 (Homo sapiens) (UniProt Q9HBX9) (assay: qHTS Assay for Agonists of the Relaxin Receptor RXFP1: RXFP1 Hit Validation). Conditions: HEK293T-RXFP1 cAMP TR-FRET, 30 min; series mostly up to 115 µM.
Sequence of UniProt Q9HBX9 (Q9HBX9 whole entry, looked up): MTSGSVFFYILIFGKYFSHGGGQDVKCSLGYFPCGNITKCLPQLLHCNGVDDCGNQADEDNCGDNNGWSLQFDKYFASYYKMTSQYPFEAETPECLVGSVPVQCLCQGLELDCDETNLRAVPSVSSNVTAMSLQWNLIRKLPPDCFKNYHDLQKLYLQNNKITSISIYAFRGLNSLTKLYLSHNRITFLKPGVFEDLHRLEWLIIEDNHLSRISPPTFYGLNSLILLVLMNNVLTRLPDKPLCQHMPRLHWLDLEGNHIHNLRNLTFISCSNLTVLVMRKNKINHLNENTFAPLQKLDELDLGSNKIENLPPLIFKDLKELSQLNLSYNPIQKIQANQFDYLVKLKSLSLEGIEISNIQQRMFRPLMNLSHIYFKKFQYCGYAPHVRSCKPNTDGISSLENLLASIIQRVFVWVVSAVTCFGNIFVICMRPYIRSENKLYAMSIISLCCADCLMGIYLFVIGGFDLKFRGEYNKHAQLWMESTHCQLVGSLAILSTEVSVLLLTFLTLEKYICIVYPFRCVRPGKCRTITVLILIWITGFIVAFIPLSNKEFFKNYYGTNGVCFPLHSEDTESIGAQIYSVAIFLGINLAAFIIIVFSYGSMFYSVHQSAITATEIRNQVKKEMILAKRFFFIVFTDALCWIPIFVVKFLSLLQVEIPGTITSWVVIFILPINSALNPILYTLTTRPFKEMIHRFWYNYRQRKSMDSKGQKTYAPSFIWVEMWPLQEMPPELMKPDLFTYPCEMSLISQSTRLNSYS
With `O=C(Nc1ccccc1)c1ccccc1NC(=O)C1CCCCC1` the Potency was inconclusive: 523 µM [activator, partial curve]. `O=C(COc1ncnc2scc(-c3ccccc3)c12)NCCN1C(=O)CSC1=O` was tested, and the Potency was inconclusive: 17.3 µM [activator, partial curve]. For `COC(=O)c1c(NC(=O)c2cccc(N3C(=O)CCC3=O)c2)sc2c1CCN(C(C)=O)C2`, the Potency was “inactive”. For `CCOc1ccc2cc(C#N)c(SCC(=O)NC(C)CC)nc2c1` (configuration not stated), the Potency was active: 4.88 µM. In the case of `CCOC(=O)C1CCN(C(=O)Cn2nc(C)n3cccc3c2=O)CC1`, the Potency is reported as inconclusive: 13.8 µM [activator, full curve, poor fit]. With `O=C(NCCCN1CCCC1=O)c1c(O)nc2ccccn2c1=O` the Potency was inconclusive: 34.6 µM [activator, partial curve]. `COc1ccc(CN2C(=O)c3cccnc3C2=O)cc1S(=O)(=O)NC1CCCCC1` was tested, and the Potency was active: 38.9 µM. In the case of `CC1CCCCN1CCNC(=O)CCc1nnc2n(Cc3ccccc3)c(=O)c3ccccc3n12` (configuration not stated), the Potency is reported as inconclusive: 43.6 µM [activator, partial curve]. In the case of `C=CCOc1c(Cl)cc(CNc2ccc(N(C)C)cc2)cc1OC`, the Potency is reported as “inactive”. With `Cc1nn(CCCC(=O)NCc2ccc(F)cc2)c(=O)c2nccn12` the Potency was inconclusive: 38.9 µM [activator, partial curve]. `COc1ccccc1NC(=O)c1sc2nc3n(c(=O)c2c1C)CCC3` was tested, and the Potency was “inactive”. `COc1ccc(C(=O)COC(=O)Cn2cnc3c2c(=O)n(C)c(=O)n3C)c(OC)c1` was tested, and the Potency was inconclusive: 38.9 µM [activator, partial curve]. For `Cc1cc(C)c(C(=O)CSc2n[nH]c(=O)n2C2CC2)cc1C`, the Potency was “inactive”. In the case of `Cc1ccc(CNC(=O)CCCn2nc(C)n3ccnc3c2=O)cc1`, the Potency is reported as inconclusive: 38.9 µM [activator, partial curve, poor fit]. In the case of `CC(C)c1ccccc1NC(=O)c1ccccc1NC(=O)C1CCCCC1`, the Potency is reported as “inactive”. In the case of `Cn1c2ccccc2c2nnc(SCC(=O)Nc3cccc(C(=O)O)c3)nc21`, the Potency is reported as inconclusive: 30.9 µM [activator, partial curve]. In the case of `Cc1ccc(CNC(=O)CCc2nnc3ccc(NCCCN4CCCC4=O)nn23)cc1`, the Potency is reported as inconclusive: 43.6 µM [activator, partial curve]. With `O=C(OCc1cccc([N+](=O)[O-])c1)c1cnccn1` the Potency was inconclusive: 26.6 µM [activator, partial curve]. In the case of `Cn1c(=O)c2c(ncn2CC(=O)N/N=C/c2cn[nH]c2-c2ccc(F)cc2)n(C)c1=O`, the Potency is reported as inconclusive: 21.8 µM [activator, partial curve]. With `CCOc1ccccc1NC(=O)CSc1ccc2nnc(-c3cccnc3)n2n1` the Potency was “inactive”. `COc1ccc(/C=N/NC(=O)Cn2cnc3c2c(=O)n(C)c(=O)n3C)c(OC)c1OC` was tested, and the Potency was inconclusive: 21.9 µM [activator, partial curve]. For `CCN(CC)c1ccc(S(=O)(=O)N2CCOCC2)cc1NC(=O)CSc1nncn1C`, the Potency was active: 12.3 µM. For `Cc1c(Cl)cccc1NC(=O)CCCN1C(=O)c2cccnc2C1=O`, the Potency was inconclusive: 34.6 µM [activator, partial curve]. For `Cn1c(=O)c2c(ncn2CC(=O)NC2CCCCC2)n(C)c1=O`, the Potency was inconclusive: 51.6 µM [activator, partial curve]. For `Brc1ccc2ncnc(NCc3cccnc3)c2c1`, the Potency was active: 38.9 µM. `COc1ccc(CN2C(=O)c3cccnc3C2=O)cc1S(=O)(=O)N1CCCCC1C` (configuration not stated) was tested, and the Potency was inconclusive: 9.74 µM [activator, partial curve]. For `CCn1c(=O)c2sccc2n2c(CCCC(=O)NCc3cccnc3)nnc12`, the Potency was “inactive”. `O=C(Cn1nc(-c2cccc([N+](=O)[O-])c2)c2ccccc2c1=O)NCC1CCCO1` (configuration not stated) was tested, and the Potency was inconclusive: 38.9 µM [activator, partial curve]. With `COc1ccc(/C=N/NC(=O)Cn2cnc3c2c(=O)n(C)c(=O)n3C)cc1` the Potency was inconclusive: 34.6 µM [activator, partial curve]. In the case of `CCOC(=O)C1CCN(C(=O)c2cc3c(=O)n4ccccc4nc3s2)CC1`, the Potency is reported as inconclusive: 43.6 µM [activator, partial curve]. In the case of `CC(NC(=O)c1ccccc1NC(=O)c1ccco1)C(=O)O` (configuration not stated), the Potency is reported as “inactive”. `Cc1ccc2[nH]c3c(=S)nc[nH]c3c2c1` was tested, and the Potency was active: 3.88 µM.
